# Data from the supplement of paper PMC8728848.
# The list shows a part of the results.
# B1: PX9961T-pdi-555-33-555 (Parabacteroides distasonis) (protein)
# chain: FDEETAFQSPTLVYVNTVASLYNNMFKIMGNDRHVYDLNTFSSDEAMLPCRIGDWEDGGLWQNIFLHRWGTMNDLTKNSWDFLYEQIGKCNQSVDKLQAFAEEQPDVEYFKVYLEEVRAVRAFFYYELLDLFARVPLVTSSTTPMSEVKQSERSVVFNFVRSELEEALPYLSDNRSNQKGEYYGRITKPVAYMILAKLALNAEVYADDNWTDGNRPAGKNIKFTVDGKEMNAWEATIAYVDKLEALGYKLQGNFSENFAVANETSVENIFTVPMDPVAYPDAKDYNLVRTRHYDHATAYGQSGWNGSCATVKAMNVFKFGTADEDPRCKLTYFTGEVTGPDGKTIYTEWDGQKVPLKYEPNAPKVYMDASDGLLVKTAGARMAKYEFDQNAQDGGNLHGNDCVIFRFADALLMKAEAKIRLGQNGDDEVNQVRNRVGAKPLQNVTLDTLLDERMLELAWEGVRRQDLIRFGKFTEATVDRYVGVKHFASSLDYQEDKTGYTTVFSIYADILSLNPNLTQNPGY
# Tests used:
# Assay in all cases: glycan array binding signal (z-score within array); higher = stronger binding
# Conditions in all cases: glycan notation: IUPAC condensed, linker removed
# [1] = target: Fuc(a1-2)[Gal(a1-4)]Gal(b1-4)GlcNAc
# How it was run: (§1)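 The binding signal is a Z-score computed within each array and averaged over linkers. Arrays of the same protein sequence at different concentrations or buffers were also averaged together. Data originate from 3228 arrays in the Consortium for Functional Glycomics database, kept only where the protein sequence was available.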
# [2] = target: Fuc(a1-2)[GalNAc(a1-3)]Gal
# How it was run: as §1
# [3] = target: Fuc(a1-2)[GalNAc(a1-3)]Gal(b1-3)GalNAc(a1-3)[Fuc(a1-2)]Gal(b1-4)GlcNAc
# How it was run: as §1
# [4] = target: Fuc(a1-2)[GalNAc(a1-3)]Gal(b1-3)GalNAc(b1-3)Gal(a1-4)Gal(b1-4)Glc
# How it was run: as §1
# [5] = target: Fuc(a1-2)[GalNAc(a1-3)]Gal(b1-3)GlcNAc
# How it was run: as §1
# [6] = target: Fuc(a1-2)[GalNAc(a1-3)]Gal(b1-3)GlcNAc(b1-2)Man(a1-3)[Fuc(a1-2)[GalNAc(a1-3)]Gal(b1-3)GlcNAc(b1-2)Man(a1-6)]Man(b1-4)GlcNAc(b1-4)GlcNAc
# How it was run: as §1
# [7] = target: Fuc(a1-2)[GalNAc(a1-3)]Gal(b1-3)GlcNAc(b1-2)Man(a1-3)[Fuc(a1-2)[GalNAc(a1-3)]Gal(b1-3)GlcNAc(b1-2)Man(a1-6)]Man(b1-4)GlcNAc(b1-4)[Fuc(a1-6)]GlcNAc
# How it was run: as §1
# [8] = target: Fuc(a1-2)[GalNAc(a1-3)]Gal(b1-3)GlcNAc(b1-3)GalNAc
# How it was run: as §1
# [9] = target: Fuc(a1-2)[GalNAc(a1-3)]Gal(b1-3)GlcNAc(b1-6)GalNAc
# How it was run: as §1
# [10] = target: Fuc(a1-2)[GalNAc(a1-3)]Gal(b1-4)Glc
# How it was run: as §1
# [11] = target: Fuc(a1-2)[GalNAc(a1-3)]Gal(b1-4)GlcNAc
# How it was run: as §1
# [12] = target: Fuc(a1-2)[GalNAc(a1-3)]Gal(b1-4)GlcNAc(b1-2)Man
# How it was run: as §1
# [13] = target: Fuc(a1-2)[GalNAc(a1-3)]Gal(b1-4)GlcNAc(b1-2)Man(a1-3)[Fuc(a1-2)[GalNAc(a1-3)]Gal(b1-4)GlcNAc(b1-2)Man(a1-6)]Man(b1-4)GlcNAc(b1-4)GlcNAc
# How it was run: as §1
# [14] = target: Fuc(a1-2)[GalNAc(a1-3)]Gal(b1-4)GlcNAc(b1-2)Man(a1-3)[Fuc(a1-2)[GalNAc(a1-3)]Gal(b1-4)GlcNAc(b1-2)Man(a1-6)]Man(b1-4)GlcNAc(b1-4)[Fuc(a1-6)]GlcNAc
# How it was run: as §1
# [15] = target: Fuc(a1-2)[GalNAc(a1-3)]Gal(b1-4)GlcNAc(b1-3)Gal(b1-4)GlcNAc
# How it was run: as §1
# [16] = target: Fuc(a1-2)[GalNAc(a1-3)]Gal(b1-4)GlcNAc(b1-3)Gal(b1-4)GlcNAc(b1-3)Gal(b1-4)GlcNAc
# How it was run: as §1
# [17] = target: Fuc(a1-2)[GalNAc(a1-3)]Gal(b1-4)GlcNAc(b1-3)GalNAc
# How it was run: as §1
# [18] = target: Fuc(a1-2)[GalNAc(a1-3)]Gal(b1-4)GlcNAc(b1-3)[Fuc(a1-2)[GalNAc(a1-3)]Gal(b1-4)GlcNAc(b1-6)]GalNAc
# How it was run: as §1
# [19] = target: Fuc(a1-2)[GalNAc(a1-3)]Gal(b1-4)GlcNAc(b1-6)GalNAc
# How it was run: as §1
# [20] = target: Fuc(a1-2)[GalNAc(a1-3)]Gal(b1-4)[Fuc(a1-3)]GlcNAc
# How it was run: as §1
# [21] = target: Fuc(a1-2)[GalNAc(a1-3)]Gal(b1-4)[Fuc(a1-3)]GlcNAc(b1-3)GalNAc
# How it was run: as §1
# [22] = target: Fuc(a1-2)[GalNAc(a1-4)]Gal(b1-4)GlcNAc
# How it was run: as §1
# [23] = target: Fuc(a1-2)[GalNAc(b1-3)]Gal
# How it was run: as §1
# Fuc(a1-3)GlcNAc = target: Fuc(a1-3)GlcNAc
# How it was run: as §1
# [24] = target: Fuc(a1-3)[Gal(b1-4)]Glc6S
# How it was run: as §1
# [25] = target: Fuc(a1-3)[Gal(b1-4)]GlcNAc
# How it was run: as §1
# [26] = target: Fuc(a1-3)[Gal(b1-4)]GlcNAc(b1-2)Man
# How it was run: as §1
# [27] = target: Fuc(a1-3)[Gal(b1-4)]GlcNAc(b1-2)Man(a1-3)[Fuc(a1-3)[Gal(b1-4)]GlcNAc(b1-2)Man(a1-6)]Man(b1-4)GlcNAc(b1-4)GlcNAc
# How it was run: as §1
# [28] = target: Fuc(a1-3)[Gal(b1-4)]GlcNAc(b1-2)Man(a1-3)[Fuc(a1-3)[Gal(b1-4)]GlcNAc(b1-2)Man(a1-6)]Man(b1-4)GlcNAc(b1-4)[Fuc(a1-6)]GlcNAc
# How it was run: as §1
# [29] = target: Fuc(a1-3)[Gal(b1-4)]GlcNAc(b1-3)Gal(b1-3)[Fuc(a1-4)]GlcNAc
# How it was run: as §1
# [30] = target: Fuc(a1-3)[Gal(b1-4)]GlcNAc(b1-3)Gal(b1-4)[Fuc(a1-3)]GlcNAc
# How it was run: as §1
# [31] = target: Fuc(a1-3)[Gal(b1-4)]GlcNAc(b1-3)Gal(b1-4)[Fuc(a1-3)]GlcNAc(b1-3)Gal(b1-4)[Fuc(a1-3)]GlcNAc
# How it was run: as §1
# [32] = target: Fuc(a1-3)[Gal(b1-4)]GlcNAc(b1-3)GalNAc
# How it was run: as §1
# [33] = target: Fuc(a1-3)[Gal(b1-4)]GlcNAc(b1-6)GalNAc
# How it was run: as §1
# [34] = target: Fuc(a1-3)[Gal(b1-4)]GlcNAc(b1-6)[Gal(b1-3)GlcNAc(b1-3)]Gal(b1-4)Glc
# How it was run: as §1
# [35] = target: Fuc(a1-3)[Gal(b1-4)]GlcNAc6S
# How it was run: as §1
# [36] = target: Fuc(a1-3)[Gal3S(b1-4)]Glc
# How it was run: as §1
# [37] = target: Fuc(a1-3)[Gal3S(b1-4)]GlcNAc
# How it was run: as §1
binder,measurement,setting,value
B1,glycan array binding signal (z-score),[1],-0.466
same,glycan array binding signal (z-score),[2],0.066
same,glycan array binding signal (z-score),[3],-0.671
same,glycan array binding signal (z-score),[4],-0.318
same,glycan array binding signal (z-score),[5],-0.05
same,glycan array binding signal (z-score),[6],0.798
same,glycan array binding signal (z-score),[7],-0.046
same,glycan array binding signal (z-score),[8],-0.257
same,glycan array binding signal (z-score),[9],-0.892
same,glycan array binding signal (z-score),[10],-0.12
same,glycan array binding signal (z-score),[11],-0.266
same,glycan array binding signal (z-score),[12],0.065
same,glycan array binding signal (z-score),[13],-0.643
same,glycan array binding signal (z-score),[14],2.12
same,glycan array binding signal (z-score),[15],-0.445
same,glycan array binding signal (z-score),[16],-0.438
same,glycan array binding signal (z-score),[17],-0.475
same,glycan array binding signal (z-score),[18],0.341
same,glycan array binding signal (z-score),[19],-0.087
same,glycan array binding signal (z-score),[20],-0.348
same,glycan array binding signal (z-score),[21],-0.097
same,glycan array binding signal (z-score),[22],0.411
same,glycan array binding signal (z-score),[23],-0.466
same,glycan array binding signal (z-score),Fuc(a1-3)GlcNAc,-0.066
same,glycan array binding signal (z-score),[24],-0.485
same,glycan array binding signal (z-score),[25],-0.143
same,glycan array binding signal (z-score),[26],0.325
same,glycan array binding signal (z-score),[27],-0.199
same,glycan array binding signal (z-score),[28],-0.637
same,glycan array binding signal (z-score),[29],-0.72
same,glycan array binding signal (z-score),[30],-0.611
same,glycan array binding signal (z-score),[31],-0.822
same,glycan array binding signal (z-score),[32],0.098
same,glycan array binding signal (z-score),[33],0.489
same,glycan array binding signal (z-score),[34],0.275
same,glycan array binding signal (z-score),[35],0.012
same,glycan array binding signal (z-score),[36],0.336
same,glycan array binding signal (z-score),[37],0.652
